Source: patent US10358436B2, “Kinase inhibitors and method of treating cancer” (University Health Network, priority 2010, dated 2019)
Where a name gives a salt, the structure may show the parent alone. Read-outs that look alike come from different tables or passages of the source. Values belong to the compound of their own block, whether it stands above or below them.

How the values were obtained:
[1] = test system: HCT116+/− colon cancer cell line; experiment: cells; conditions: Homo sapiens, HCT-116, 120 h, read-out: GI50 Range, HCT116+/−
[2] = test system: HCT-15 colon cancer cell line; experiment: cells; conditions: Homo sapiens, HCT-15, 120 h, read-out: GI50 Range, HCT-15
[3] = test system: BT474 breast cancer cell line; experiment: cells; conditions: Homo sapiens, BT-474, 120 h, read-out: GI50 Range, BT474
[4] = test system: HCC1954 basal breast cancer cell line; experiment: cells; conditions: Homo sapiens, HCC1954, 120 h
[5] = test system: PC-3 prostate cancer cell line; experiment: cells; conditions: 120 h, read-out: GI50 Range, PC-3
[6] = test system: HCT116+/+ colon cancer cell line; experiment: cells; conditions: Homo sapiens, HCT-116, 120 h, read-out: GI50 Range, HCT116+/+
[7] = test system: SK-OV-3 ovarian cancer cell line; experiment: cells; conditions: Homo sapiens, SK-OV-3, 120 h, read-out: GI50 Range, SK-OV-3
[8] = test system: SKBR3 breast cancer cell line; experiment: cells; conditions: Homo sapiens, SK-BR-3, 120 h, read-out: GI50 Range, SKBR3
[9] = test system: 184A1 immortalized breast cell line; experiment: cells; conditions: 184A1, 120 h, read-out: GI50 Range, 184A1
[10] = test system: human mammary epithelial primary cells (HMEC); experiment: cells; conditions: 120 h, read-out: Cell Line GI50 Range HMEC
[11] = test system: SW620 colon cancer cell line; experiment: cells; conditions: Homo sapiens, SW-620, 120 h, read-out: Cell Line GI50 Range SW-620
518A2 melanoma cell line = experiment: cells; conditions: Homo sapiens, 518A2, 120 h, read-out: GI50 Range, 518A2
[12] = test system: HCC1954 basal breast cancer cell line
[13] = test system: T47 D breast cancer cell line; experiment: cells; conditions: Homo sapiens, T47D, 120 h, read-out: GI50 Range, T47 D
[14] = test system: MDA-MB-468 basal breast cancer cell line; experiment: cells; conditions: Homo sapiens, MDA-MB-468, 120 h
[15] = test system: SK-N-SH brain cancer cell line; experiment: cells; conditions: Homo sapiens, 120 h, read-out: GI50 Range, SK-N-SH
[16] = test system: A549 lung cancer cell line; experiment: cells; conditions: Homo sapiens, A549, 120 h, read-out: Cell Line GI50 Range A-549
[17] = test system: H358 lung cancer cell line; experiment: cells; conditions: Homo sapiens, NCI-H358, 120 h, read-out: GI50 Range, H358
[18] = test system: OVCAR-3 ovarian cancer cell line; experiment: cells; conditions: Homo sapiens, OVCAR-3, 120 h, read-out: GI50 Range, OVCAR-3
[19] = test system: HS578T breast cancer cell line; experiment: cells; conditions: Homo sapiens, Hs-578T, 120 h, read-out: GI50 Range, HS578T
[20] = test system: Hs683 brain cancer cell line; experiment: cells; conditions: Homo sapiens, Hs 683, 120 h, read-out: GI50 Range, Hs683
[21] = test system: Colo 205 colon cancer cell line; experiment: cells; conditions: Homo sapiens, COLO 205, 120 h, read-out: GI50 Range, Colo 205
[22] = test system: SW 626 ovarian cancer cell line; experiment: cells; conditions: Homo sapiens, SW626, 120 h, read-out: GI50 Range, SW 626
[23] = test system: MCF-7 luminal breast cancer cell line; experiment: cells; conditions: Homo sapiens, MCF7, 120 h
[24] = test system: A172 brain cancer cell line; experiment: cells; conditions: Homo sapiens, A 172, 120 h, read-out: GI50 Range, A172
[25] = test system: MDA-MB-231 breast cancer cell line; experiment: cells; conditions: Homo sapiens, MDA-MB-231, 120 h, read-out: GI50 Range, MDA-MB-231
[26] = test system: MDA-MB-468 basal breast cancer cell line; conditions: read-out: Cell Line GI50 Range MDA-MB-468, SRB assay, 5 days, dihydrochloride
[27] = read-out: Cell Line GI50 Range MDA-MB-468, MDA-MB-468 basal breast cancer cell line, SRB assay, 5 days
[28] = read-out: Cell Line GI50 Range MCF-7
[29] = read-out: Cell Line GI50 Range MDA-MB-468
[30] = read-out: Cell Line GI50 Range HCC-1954, HCC1954 basal breast cancer cell line, SRB assay, 5 days
[31] = read-out: Cell Line GI50 Range MCF-7, MCF-7 luminal breast cancer cell line, SRB assay, 5 days

Structure (SMILES): CN(C)Cc1ccc(/C=C/c2n[nH]c3cc([C@@H]4C[C@@]45C(=O)Nc4ccccc45)ccc23)cc1 (relative stereo) [Example A23, (1R*,2S*)-(E)-2-(3-(4-((dimethylamino)methyl)styryl)-1H-indazol-6-yl)spiro[cyclopropane-1,3′-indolin]-2′-one 2,2,2-trifluoroacetate]
GI50 [1]: 1 to 50 µM
GI50 [2]: 1 to 50 µM
GI50 [3]: 1 to 50 µM
GI50 ([4]; read-out: Cell Line GI50 Range HCC-1954): 1 to 10 µM
GI50 [5]: 1 to 50 µM
GI50 [6]: 1 to 50 µM
GI50 [7]: 1 to 50 µM
GI50 [8]: 1 to 50 µM
GI50 [9]: 1 to 50 µM
GI50 [10]: > 10 µM

Structure (SMILES): COc1ccc2c(c1)[C@]1(C[C@H]1c1ccc3c(-c4ccc(N5CCN(C)CC5)nc4)n[nH]c3c1)C(=O)N2 (relative stereo) [Example A13, (1R*,2S*)-5′-Methoxy-2-(3-(6-(4-methylpiperazin-1-yl)pyridin-3-yl)-1H-indazol-6-yl)spiro[cyclopropane-1,3′-indolin]-2′-one]
GI50 [11]: < 0.1 µM
GI50 (518A2 melanoma cell line): < 0.1 µM
GI50 [1]: 1 to 50 µM
GI50 ([12]; read-out: Cell Line GI50 Range HCC-1954, SRB assay, 5 days): 0.1 to 1 µM
GI50 [2]: 1 to 50 µM
GI50 [13]: 1 to 50 µM
GI50 [3]: 1 to 50 µM
GI50 [14, 27]: 0.1 to 1 µM
GI50 [15]: > 50 µM
GI50 [16]: < 0.1 µM
GI50 [17]: < 0.1 µM
GI50 [5]: 1 to 50 µM
GI50 [18]: < 0.1 µM
GI50 [6]: 1 to 50 µM
GI50 [7]: 1 to 50 µM
GI50 [19]: 1 to 50 µM
GI50 [20]: < 0.1 µM
GI50 [8]: 1 to 50 µM
GI50 [9]: 0.1 to 1 µM
GI50 [21]: < 0.1 µM
GI50 [22]: 1 to 50 µM
GI50 [23, 28]: < 0.1 µM
GI50 [10]: > 10 µM
GI50 [24]: < 0.1 µM
GI50 [25]: < 0.1 µM

Structure (SMILES): COc1ccc2c(c1)[C@]1(C[C@H]1c1ccc3c(-c4ccc(N5CCN(C)CC5)nc4)n[nH]c3c1)C(=O)N2 (relative stereo) [Example A14, (1R*,2S*)-5′-Methoxy-2-(3-(6-(4-methylpiperazin-1-yl)pyridin-3-yl)-1H-indazol-6-yl)spiro[cyclopropane-1,3′-indolin]-2′-one dihydrochloride]
GI50 [26]: < 0.1 µM
GI50 ([12]; read-out: Cell Line GI50 Range HCC-1954, SRB assay, 5 days, dihydrochloride): 1 to 10 µM

Structure (SMILES): COc1ccc2c(c1)[C@]1(C[C@H]1c1ccc3c(-c4ccc(N5CCN(C)CC5)cc4)n[nH]c3c1)C(=O)N2 [Example A39, (1R,2S)-5′-methoxy-2-(3-(4-(4-methylpiperazin-1-yl)phenyl)-1H-indazol-6-yl)spiro[cyclopropane-1,3′-indolin]-2′-one hydrochloride]
GI50 [11]: < 0.1 µM
GI50 [14, 27]: < 0.1 µM
GI50 [4, 30]: 1 to 10 µM
GI50 [16]: < 0.1 µM
GI50 [23, 28]: < 0.1 µM
GI50 [10]: > 10 µM

Now from value to compound, other results behind:

GI50 [11]: < 0.1 µM
GI50 [14, 29]: < 0.1 µM
GI50 [4, 30]: 0.1 to 1 µM
GI50 [16]: < 0.1 µM
GI50 [23, 31]: < 0.1 µM
Structure (SMILES): COc1ccc2c(c1)[C@]1(C[C@H]1c1ccc3c(-c4ccc(N5CCC(N(C)C)CC5)cc4)n[nH]c3c1)C(=O)N2 [Example A120, (1R,2S)-2-(3-(4-(4-(dimethylamino)piperidin-1-yl)phenyl)-1H-indazol-6-yl)-5′-methoxyspiro[cyclopropane-1,3′-indolin]-2′-one 2,2,2-trifluoroacetate]
GI50 [10]: > 10 µM

GI50 [11]: < 0.1 µM
GI50 [14, 29]: < 0.1 µM
GI50 [4, 30]: < 0.1 µM
GI50 [16]: < 0.1 µM
GI50 [23, 31]: 0.1 to 1 µM
Structure (SMILES): CN1CCc2ccc(/C=C/c3n[nH]c4cc([C@@H]5C[C@@]56C(=O)Nc5ccccc56)ccc34)cc2C1 [Example A65, (1R,2S)-2-(3-((E)-2-(2-methyl-1,2,3,4-tetrahydroisoquinolin-7-yl)vinyl)-1H-indazol-6-yl)spiro[cyclopropane-1,3′-indolin]-2′-one 2,2,2-trifluoroacetate salt]
GI50 [10]: > 10 µM

GI50 [11]: 0.1 to 1 µM
GI50 [14, 29]: < 0.1 µM
GI50 [4, 30]: < 0.1 µM
GI50 [16]: < 0.1 µM
GI50 [23, 31]: 0.1 to 1 µM
Structure (SMILES): COc1ccc2c(c1)[C@]1(C[C@H]1c1ccc3c(-c4ccc(N5CCN(C6CCCCC6)CC5)cc4)n[nH]c3c1)C(=O)N2 [Example A193, (1R,2S)-2-(3-(4-(4-cyclohexylpiperazin-1-yl)phenyl)-1H-indazol-6-yl)-5′-methoxyspiro[cyclopropane-1,3′-indolin]-2′-one 2,2,2-trifluoroacetate]
GI50 [10]: 1 to 10 µM
